According to the supplement of paper PMC3334620:
Over roughly 33,000 sequences, “E-score (-0.5 to 0.5)” has its median near -0.04; the highest 2% begin near 0.36. The list shows a part of the results.

molecular target: T1, Hmlalpha2 (UniProt P0CY09); assay: PBM E-score (8-mer binding enrichment) (E-score (-0.5 to 0.5)); higher = stronger / more preferred TF binding; most listed sequences are background and not binding sites; conditions: protein concentration: 200 nM; construct: GST-full length
T1 sequence: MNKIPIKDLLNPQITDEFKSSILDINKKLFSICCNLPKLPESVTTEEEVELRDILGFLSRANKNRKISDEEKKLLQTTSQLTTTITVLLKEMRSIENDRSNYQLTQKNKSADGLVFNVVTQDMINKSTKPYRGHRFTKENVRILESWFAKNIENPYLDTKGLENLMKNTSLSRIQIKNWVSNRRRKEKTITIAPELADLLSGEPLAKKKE
Outline: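 Bound GST-tagged yeast transcription factors, applied at about 100-200 nM to double-stranded universal all-10-mer Agilent arrays, were detected with fluorescent anti-GST. Scans were normalised with masliner. A modified Wilcoxon-Mann-Whitney statistic, the E-score, was assigned to each ungapped eight-base word pooled with its reverse complement by the Universal PBM Analysis Suite.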

Row | Sequence | PBM E-score
1 | AACCGGCA | -0.229
2 | AAAACAAC | 0.16
3 | CACATAGG | 0.0614
4 | CCTCCATC | -0.223
5 | CAGGTTGA | -0.0957
6 | ATTGCTTC | -0.0298
7 | AAAATAAG | 0.0122
8 | ACGACCGT | -0.16
9 | GCAGGCAC | -0.186
10 | CGAGTACA | 0.218
11 | AGGATCGC | -0.0343
12 | CCGTCCAA | -0.294
13 | ACCAACAC | 0.32
14 | CGGAGTGC | -0.23
15 | GGGCGGGA | -0.166
16 | AGCGTTTG | -0.188
17 | AGCAGCAA | -0.084
18 | ACAGGGGT | -0.035
19 | AACTCACA | 0.0163
20 | CCAACCAC | 0.086
21 | TCGGGCCA | -0.353
22 | ACTCTTTG | -0.0523
23 | ACCCTTAA | -0.0263
24 | ACTACCCT | -0.213
25 | GACTCCAC | -0.373

Row | Sequence | PBM E-score
26 | AGCTGCAC | -0.0262
27 | CTAAGAAA | 0.181
28 | ACCATAAC | 0.152
29 | GACGTCAC | -0.067
30 | AAAAGGAT | 0.0597
31 | CACGTAAA | 0.405
32 | CCTCTGTC | -0.138
33 | ACTTACAT | 0.43
34 | CCCGCTAC | 0.0803
35 | AGAAACAC | 0.27
36 | AGGAGTAG | -0.0824
37 | ACATCGAA | 0.146
38 | AGATAGGA | -0.268
39 | CAACAAGA | 0.225
40 | CATAAAAG | -0.0298
41 | CCACCTAC | -0.175
42 | AACTCCAA | 0.0679
43 | AGGACCAA | 0.0164
44 | CTCAGTAC | 0.0181
45 | ACTGGCTA | -0.179
46 | AGCGTGCC | -0.142
47 | GAGTTCCA | -0.0668
48 | GCTGTCCC | -0.228
49 | CGCCCCAA | 0.0342
50 | CGTTTCTC | -0.166

Row | Sequence | PBM E-score
51 | ACCACTTC | -0.229
52 | AAGCATCA | -0.103
53 | AACGCAAT | 0.326
54 | CGGTGTAG | 0.103
55 | ATAGTACA | 0.273
56 | CCATTCTC | -0.247
57 | TAAATCTA | 0.236
58 | AGGGAAGG | -0.222
59 | AGCTGCGC | -0.0832
60 | ACTTGCGC | -0.0151
61 | GCTCCCGA | -0.314
62 | CGAGGTCA | -0.138
63 | CAAAATCA | 0.082
64 | TCTCAAGA | -0.189
65 | GTCTTGGA | -0.0752
66 | CGTATGGC | 0.0244
67 | GGCCCGGA | -0.324
68 | AATAGAGC | -0.00245
69 | AAGAGTAC | 0.0432
70 | CCGCGCCC | -0.312
71 | AGGCCGGC | -0.0897
72 | CCCGTTAG | -0.328
73 | ATATGAAT | -0.0472
74 | ACGCAAAC | 0.125
75 | CCCGACAG | -0.191

Row | Sequence | PBM E-score
76 | ATTACGAA | 0.289
77 | ACCCCAGC | -0.0667
78 | CGGCATAG | -0.0139
79 | CCCATCAG | -0.268
80 | TATTTTAA | 0.198
81 | ATACGTGA | 0.208
82 | CCTCGGTA | -0.353
83 | ATGTCTAG | 0.215
84 | CCCAGCCA | -0.222
85 | ACGTCTTC | 0.00621
86 | CGCGTTAG | 0.3
87 | ACCTATGC | -0.0222
88 | ATGAACTA | 0.147
89 | AGGTGCTA | 0.04
90 | GATGGTGC | -0.269
91 | TCCGGAGA | -0.243
92 | ACCAACTA | 0.151
93 | CCACCTAG | -0.146
94 | CATCATCG | -0.156
95 | AAGACCGC | -0.103
96 | ATCTGACC | 0.00247
97 | ATTTACGA | 0.236
98 | GAGTGATC | -0.0409
99 | GCTGGGCA | -0.0146
100 | TAGGCAGA | -0.0564

Row | Sequence | PBM E-score
101 | AGGTCCTC | -0.168
102 | AGCGTGAA | -0.0458
103 | ACCCTTCT | -0.231
104 | TCCGCTAA | -0.228
105 | CGCCGTCA | -0.136
106 | CGCTGTAC | 0.135
107 | ACATGGGC | 0.342
108 | CACGGAAG | 0.124
109 | GAGCGCGA | -0.0347
110 | GCTGCTCC | -0.204
111 | ATGACTTA | -0.0245
112 | AACGTAGC | 0.178
113 | CTGTAGAC | 0.104
114 | ATACTCGA | 0.0274
115 | CGCGCGCG | 0.0389
116 | TCGCTGCA | 0.0487
117 | CTGGATTA | 0.0226
118 | TTACACAA | 0.478
119 | CGCCGTGC | -0.00367
120 | TCGATCGA | -0.0811
121 | ACATTTAG | 0.136
122 | AATCCTGG | -0.0758
123 | GCTCGCGA | -0.065
124 | GATAGGTA | 0.0736
125 | AAACCCTT | 0.12

Row | Sequence | PBM E-score
126 | CATCGCCA | -0.122
127 | GATATCTA | -0.00449
128 | AGCGTTAT | 0.0624
129 | ACGATGTC | 0.0103
130 | AACTGGCC | -0.144
131 | CCAAGATA | 0.0874
132 | CATGCCAG | -0.0888
133 | CGCTTAGA | -0.218
134 | GTTCTCTA | 0.148
135 | GAAGGTGC | -0.29
136 | GATACAGA | -0.0603
137 | CGGAGCCG | -0.194
138 | CGGTTGCA | -0.244
139 | ACGAATCG | -0.0213
140 | AGCGAACG | -0.207
141 | CGTTTCTA | 0.137
142 | ATTTCGCC | -0.104
143 | GATACCTA | 0.0911
144 | ATCATGAG | 0.0487
145 | AGCTACAC | 0.319
146 | CTTCTCGC | -0.28
147 | CGGCTGAC | -0.0987
148 | TACTAGCA | 0.212
149 | AGTGTTTG | 0.124
150 | TCCAGTAA | 0.00452

Row | Sequence | PBM E-score
151 | CCCACGAA | -0.102
152 | CTTAGGAC | -0.0281
153 | CCCATGCC | -0.188
154 | ACGGTCAC | -0.196
155 | AACACCTA | 0.0399
156 | CACGCAAC | 0.291
157 | CAGCAGCC | -0.0508
158 | CGTACCAC | -0.0795
159 | GCTACCCC | -0.226
160 | CAGAAGGG | -0.171
161 | CCGCCAGA | -0.00086
162 | ACGCCACG | 0.0296
163 | ATCCGCCC | -0.281
164 | GACACACA | 0.211
165 | CGCGCGAC | -0.109
166 | ACACGCAC | 0.382
167 | ACACTGTG | 0.184
168 | AAAGGGGA | -0.337
169 | TCCGAACA | -0.0774
170 | AGTGACCA | -0.21
171 | ATATATTA | 0.222
172 | GTGAACAC | 0.252
173 | GGCGCGAA | -0.0217
174 | AGTAAGTG | -0.043
175 | TCTTAGCA | -0.0729

Row | Sequence | PBM E-score
176 | TCGTTAGA | -0.122
177 | CTGTTGGC | -0.279
178 | ACGAGTGA | -0.00913
179 | ACAACATG | 0.451
180 | ATGCGGAG | -0.164
181 | AGTTCTAT | -0.119
182 | ACACCTAT | 0.0293
183 | TGTTAGAA | 0.334
184 | GGTTTCAC | 0.083
185 | GTAACTTA | 0.214
186 | GTATAAAA | 0.282
187 | CATCCCGA | -0.078
188 | GCCTCTCA | -0.335
189 | GGCTGGGA | -0.185
190 | CCCAGGCA | -0.219
191 | AACCTCTC | -0.275
192 | AGACGTAC | 0.0364
193 | AACGGCCG | -0.129
194 | CGATACTC | -0.14
195 | CCGTGAGG | -0.356
196 | GTATGTAA | 0.477
197 | GACCGGTC | -0.12
198 | GACCTTCC | -0.156
199 | ACACGGAC | 0.289
200 | CACAATTA | 0.203

Row | Sequence | PBM E-score
201 | CCCGTAAA | 0.00577
202 | CATATTAG | 0.0749
203 | AGGCTCCA | -0.158
204 | ACATGGGA | 0.33
205 | GGCTTGTA | 0.261
206 | ATTCCTGG | -0.23
207 | GCGGCCAA | -0.0877
208 | ATTACTAG | 0.184
209 | GAAGGGGA | -0.0559
210 | TACCCAGA | -0.0715
211 | CCGATCAG | -0.192
212 | CACGCGTG | 0.374
213 | ATCGGGAA | -0.0774
214 | CGTAGTTA | 0.269
215 | AACCGTAC | -0.0109
216 | CCCCGTTC | -0.361
217 | CACCGAAC | -0.113
218 | ACGTTAAT | 0.304
219 | GTAATCAC | 0.257
